In paper PMC4336329 (PLoS ONE, 2015):
Hit rate of the full screen: of about 310,000 compounds, about 2,200 (0.71%) showed an effect of 50% or more. Effects have a minus sign here. This is one part of the list.

What follows are compounds tested against human ether-à-go-go-related gene (hERG) potassium channel (human, UniProt Q12809) (assay: primary screen, population patch clamp on CHO cells stably expressing hERG).
human ether-à-go-go-related gene (hERG) potassium channel, sequence (Q12809 whole entry, looked up): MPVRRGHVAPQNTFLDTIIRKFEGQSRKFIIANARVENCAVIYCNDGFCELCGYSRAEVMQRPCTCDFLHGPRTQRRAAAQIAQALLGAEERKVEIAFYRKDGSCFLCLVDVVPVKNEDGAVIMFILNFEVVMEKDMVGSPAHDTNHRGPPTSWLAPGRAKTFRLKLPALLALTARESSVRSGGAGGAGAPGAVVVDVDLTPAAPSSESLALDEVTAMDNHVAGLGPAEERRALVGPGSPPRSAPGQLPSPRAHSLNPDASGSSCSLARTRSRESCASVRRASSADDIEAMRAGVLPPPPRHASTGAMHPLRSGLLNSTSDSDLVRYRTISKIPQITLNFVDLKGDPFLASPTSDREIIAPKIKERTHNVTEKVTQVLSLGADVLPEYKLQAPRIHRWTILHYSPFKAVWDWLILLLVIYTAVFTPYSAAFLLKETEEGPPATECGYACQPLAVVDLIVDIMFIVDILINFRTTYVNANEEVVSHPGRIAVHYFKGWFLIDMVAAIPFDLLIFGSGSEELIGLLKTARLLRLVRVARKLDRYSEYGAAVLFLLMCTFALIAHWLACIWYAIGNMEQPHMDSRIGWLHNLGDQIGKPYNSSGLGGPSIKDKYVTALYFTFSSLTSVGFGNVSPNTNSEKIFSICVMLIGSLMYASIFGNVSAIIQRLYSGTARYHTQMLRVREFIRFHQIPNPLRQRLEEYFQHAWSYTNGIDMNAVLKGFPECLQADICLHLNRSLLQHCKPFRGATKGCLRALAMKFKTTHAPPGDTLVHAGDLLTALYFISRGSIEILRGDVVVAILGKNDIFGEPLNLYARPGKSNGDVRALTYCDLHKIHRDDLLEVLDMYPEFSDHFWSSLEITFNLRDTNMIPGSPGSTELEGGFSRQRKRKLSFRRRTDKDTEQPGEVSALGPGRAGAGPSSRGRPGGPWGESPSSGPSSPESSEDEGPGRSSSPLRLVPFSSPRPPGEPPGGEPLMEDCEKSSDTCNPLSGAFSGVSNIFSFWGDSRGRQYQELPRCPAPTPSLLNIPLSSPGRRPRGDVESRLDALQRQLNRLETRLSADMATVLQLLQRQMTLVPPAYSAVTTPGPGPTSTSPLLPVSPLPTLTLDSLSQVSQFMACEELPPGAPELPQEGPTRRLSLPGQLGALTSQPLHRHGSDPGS

Q: For `CCn1c2ccccc2c2nnc(NN)nc21`, which “hERG current change (%, negative = inhibition) at 1uM” value is on record?
A: 8.14%

Q: For `CCCn1c(=O)c2ccccc2n2c(SCC(=O)NCc3cccs3)nnc12`, which “hERG current change (%, negative = inhibition) at 1uM” value is on record?
A: 6.65%

Q: Which “hERG current change (%, negative = inhibition) at 1uM” value does the source give for `COc1cc(OC)cc(-c2nnc(SCc3cccnc3)o2)c1` here?
A: -1.32%

Q: For `Cc1nn(Cc2ccc(Cl)cc2)c(C)c1NC(=O)c1cc(-c2ccc3c(c2)OCO3)on1`, which “hERG current change (%, negative = inhibition) at 1uM” value is on record?
A: 3.51%

Q: How did the “hERG current change (%, negative = inhibition) at 1uM” value turn out when `CN(CC(=O)O)c1ccc(S(=O)(=O)N2CCOCC2)cc1[N+](=O)[O-]` was run?
A: 12.4%

Q: Which “hERG current change (%, negative = inhibition) at 1uM” value does the source give for `CCC(C)(C)C1CCc2[nH]nc(C(=O)NCc3ccccn3)c2C1` (stereo not shown) here?
A: 12.6%

Q: For `COc1ccc(C(=O)NC2CC2)cc1OC1CCN(Cc2cc(C)cc(C)c2)CC1`, which “hERG current change (%, negative = inhibition) at 1uM” value is on record?
A: -57.7%

Q: With `CC(=O)OC(C(=O)NC1CCCCC1)c1ccc(Cl)c(Cl)c1` (stereo not shown) as the compound, how does the “hERG current change (%, negative = inhibition) at 1uM” value read?
A: 16.1%

Q: With `CC1CCN(C(=O)CN2C(=O)NC3(CCCCCC3)C2=O)CC1` as the compound, how does the “hERG current change (%, negative = inhibition) at 1uM” value read?
A: 9.83%

Q: Which “hERG current change (%, negative = inhibition) at 1uM” value does the source give for `Cc1c(C(=O)NC(=S)N(Cc2ccccc2)c2ccccn2)cccc1[N+](=O)[O-]` here?
A: 10.8%

Q: With `CC(=O)Nc1ccc(/C=C(\C#N)C(=O)NC2CCCCC2)cc1` as the compound, how does the “hERG current change (%, negative = inhibition) at 1uM” value read?
A: 15.8%

Q: For `C#CCOCCOCCOCCNc1nc(N2CCN(C(=O)CCCCCCCCCCNC(=O)[C@@H](CCSC)n3cc(CCO)nn3)CC2)nc(N2CCN(C(=O)CCCCCCCCCCNC(=O)[C@H](CCCN=C(N)N)n3cc(C[C@@H](C)CC)nn3)CC2)n1`, which “hERG current change (%, negative = inhibition) at 1uM” value is on record?
A: 16.1%

Q: Which “hERG current change (%, negative = inhibition) at 1uM” value does the source give for `Cc1ccc(S(=O)(=O)Cc2nnnn2-c2ccccc2)cc1` here?
A: 11.5%

Q: How did the “hERG current change (%, negative = inhibition) at 1uM” value turn out when `O=C(COc1ccccc1)Nc1ccc(N2CCN(C(=O)c3ccco3)CC2)cc1` was run?
A: -7.24%

Q: How did the “hERG current change (%, negative = inhibition) at 1uM” value turn out when `Cc1cc(C)c(C(=O)CN2C(=O)NC3(CCCCCC3)C2=O)cc1C` was run?
A: 18.5%

Q: Which “hERG current change (%, negative = inhibition) at 1uM” value does the source give for `CC(C)(C)c1nnc(NC(=O)c2cccnc2Cl)s1` here?
A: 9.9%

Q: Which “hERG current change (%, negative = inhibition) at 1uM” value does the source give for `COc1ccc(OCc2nn3c(-c4cccc(OC)c4)nnc3s2)cc1` here?
A: 3.7%

Q: For `Nc1cc(S(=O)(=O)N2CCCCC2)ccc1Oc1ccc(Cl)cc1`, which “hERG current change (%, negative = inhibition) at 1uM” value is on record?
A: 11.1%

Q: For `Cc1ccc(NC(=O)C2CCN(c3nc(C)cc(C)n3)CC2)cc1`, which “hERG current change (%, negative = inhibition) at 1uM” value is on record?
A: 18.7%

Q: How did the “hERG current change (%, negative = inhibition) at 1uM” value turn out when `Cc1ccccc1NC(=O)COc1coc(CN2CCN(c3ccccc3)CC2)cc1=O` was run?
A: -1.02%

Q: For `CCOc1ccc(NC(=O)c2ccccc2NS(C)(=O)=O)cc1`, which “hERG current change (%, negative = inhibition) at 1uM” value is on record?
A: -16.5%

Q: Which “hERG current change (%, negative = inhibition) at 1uM” value does the source give for `CCn1c(=O)c2cc(C(=O)N(C)c3ccc(OC)cc3OC)sc2c2ccccc21` here?
A: 10.6%

Q: How did the “hERG current change (%, negative = inhibition) at 1uM” value turn out when `CN(C)c1nc(OCCNC(=O)Nc2ccc(Cl)cc2)nc(N(C)C)n1` was run?
A: 10.9%

Q: `CN(C)/C=N/c1nc2nccc(-c3cccc(Cl)c3)n2n1` was tested. Which “hERG current change (%, negative = inhibition) at 1uM” value did it give?
A: 12%

Q: With `C#CCn1c(=NC(=O)c2cccs2)sc2cccc(OCC)c21` as the compound, how does the “hERG current change (%, negative = inhibition) at 1uM” value read?
A: 15.8%

Q: For `CN(CC(=O)Nc1ccc(F)c(F)c1F)C(=O)CN1C(=O)C2CCCCC2C1=O` (stereo not shown), which “hERG current change (%, negative = inhibition) at 1uM” value is on record?
A: -5.9%

Q: How did the “hERG current change (%, negative = inhibition) at 1uM” value turn out when `c1cc(-c2n[nH]c(-c3ccncc3)n2)ccn1` was run?
A: 12.9%

Q: With `O=C(NC1CCCC1)c1ccc(CNc2c(N3CCOCC3)c(=O)c2=O)cc1` as the compound, how does the “hERG current change (%, negative = inhibition) at 1uM” value read?
A: 12%

Q: How did the “hERG current change (%, negative = inhibition) at 1uM” value turn out when `O=c1cc(NCc2ccc3c(c2)OCO3)[nH]c(=O)n1-c1ccc(Cl)cc1` was run?
A: -3.67%

Q: `O=C(/C=C/c1ccccc1)Nc1cccnc1` was tested. Which “hERG current change (%, negative = inhibition) at 1uM” value did it give?
A: 0.0301%

Q: For `COc1cc(C(=O)NCCCNC(=O)c2cc(OC)c(OC)c(OC)c2)cc(OC)c1OC`, which “hERG current change (%, negative = inhibition) at 1uM” value is on record?
A: 6.83%

Q: Which “hERG current change (%, negative = inhibition) at 1uM” value does the source give for `COc1ccc(C(=O)Nc2cc(OCc3ccccc3)c(Cl)cc2Cl)cc1` here?
A: 15.2%

Q: `COCC(=O)Nc1ccc(C(C)C)cc1` was tested. Which “hERG current change (%, negative = inhibition) at 1uM” value did it give?
A: 1.61%

Q: `CCOC(=O)C1(Cc2cccc(F)c2)CCN(C(=O)c2cnccn2)CC1` was tested. Which “hERG current change (%, negative = inhibition) at 1uM” value did it give?
A: 12.8%

Q: How did the “hERG current change (%, negative = inhibition) at 1uM” value turn out when `Cc1onc(-c2c(Cl)cccc2Cl)c1C(=O)NNC(=O)c1c(-c2c(Cl)cccc2Cl)noc1C` was run?
A: 15.9%

Q: `S=C(NC1CCCC1)N1CCN(c2ccc(Cl)cc2)CC1` was tested. Which “hERG current change (%, negative = inhibition) at 1uM” value did it give?
A: 3.48%

Q: `Cc1nn2c3ccccc3n(CCN3CCCCC3)c2nc1=O` was tested. Which “hERG current change (%, negative = inhibition) at 1uM” value did it give?
A: 7.27%

Q: For `CC(C)(C)N1CC(c2nc3ccccc3n2Cc2ccc(Cl)cc2)CC1=O` (stereo not shown), which “hERG current change (%, negative = inhibition) at 1uM” value is on record?
A: -3.24%

Q: How did the “hERG current change (%, negative = inhibition) at 1uM” value turn out when `COc1ccccc1N1CCN(S(=O)(=O)c2cccs2)CC1` was run?
A: -3.76%

Q: How did the “hERG current change (%, negative = inhibition) at 1uM” value turn out when `Cc1ccc(S(=O)(=O)N(C)CCCC(=O)N2CCN(C=O)CC2)cc1` was run?
A: 2.93%

Q: Which “hERG current change (%, negative = inhibition) at 1uM” value does the source give for `Cc1sc2nc(CC(N)=O)[nH]c(=O)c2c1-c1ccccc1` here?
A: 14.3%

Q: `Cc1nnc(-c2cccc(Br)c2)c2cn(-c3ccccc3)nc12` was tested. Which “hERG current change (%, negative = inhibition) at 1uM” value did it give?
A: -15.7%

Q: Which “hERG current change (%, negative = inhibition) at 1uM” value does the source give for `CC(=O)Nc1c(S(=O)(=O)c2ccccc2)c2nc3ccccc3nc2n1Cc1ccccc1` here?
A: 6.92%

Q: With `COc1ccc(OCC(=O)OCC(=O)N2CC(=O)Nc3ccccc32)cc1` as the compound, how does the “hERG current change (%, negative = inhibition) at 1uM” value read?
A: 1.24%

Q: `O=C(COC(=O)c1ccc(S(=O)(=O)Nc2ccccc2)cc1)NCCN1C(=O)CSC1=O` was tested. Which “hERG current change (%, negative = inhibition) at 1uM” value did it give?
A: 4.61%

Q: `O=C(CSc1nc2ccsc2c(=O)n1NC(=O)c1ccccc1)NCc1ccco1` was tested. Which “hERG current change (%, negative = inhibition) at 1uM” value did it give?
A: -3.26%

Q: With `Cn1cc(C[C@H](NC(=O)OC(C)(C)C)C(=O)N[C@@H](CO)Cc2ccccc2)c2ccccc21` as the compound, how does the “hERG current change (%, negative = inhibition) at 1uM” value read?
A: 2.24%

Q: How did the “hERG current change (%, negative = inhibition) at 1uM” value turn out when `C/C(=N\OCC(=O)Nc1ccc(F)c(F)c1F)c1cc2ccccc2o1` was run?
A: 10.6%

Q: With `O=C(CN(CC1CCCO1)C(=O)CNS(=O)(=O)c1ccccc1)NCc1ccc(F)cc1` (stereo not shown) as the compound, how does the “hERG current change (%, negative = inhibition) at 1uM” value read?
A: 14.8%

Q: With `CC(C)CN(C)C(=O)CC1C(=O)NCCN1C` (stereo not shown) as the compound, how does the “hERG current change (%, negative = inhibition) at 1uM” value read?
A: 15.2%

Q: With `O=c1c(-c2ccc3c(c2)OCCO3)coc2c(CN3CCOCC3)c(O)ccc12` as the compound, how does the “hERG current change (%, negative = inhibition) at 1uM” value read?
A: -4.97%

Q: For `CCOC(=O)c1c(C)n(C)c2ccc(OC(C)C(=O)OC)cc12` (stereo not shown), which “hERG current change (%, negative = inhibition) at 1uM” value is on record?
A: -0.594%

Q: How did the “hERG current change (%, negative = inhibition) at 1uM” value turn out when `CCOc1cc(NC(=S)NCc2ccco2)c(OCC)cc1NC(=O)CC` was run?
A: 2.13%

Q: `Nc1ncnc2c1ncn2C1CCC(CO)C(O)C1` (stereo not shown) was tested. Which “hERG current change (%, negative = inhibition) at 1uM” value did it give?
A: 8.22%

Q: For `Cc1cc(C(=O)N/N=C/c2cccs2)no1`, which “hERG current change (%, negative = inhibition) at 1uM” value is on record?
A: 2.98%
